Reference: the supplement of paper PMC3334620
The full ranking holds about 33,000 sequences; the median of “E-score (-0.5 to 0.5)” is about -0.012, and the highest 2% start at about 0.27. This is one part of the list.

target: T1, Vhr1 (UniProt P40522); experiment: PBM E-score (8-mer binding enrichment) (E-score (-0.5 to 0.5)); higher = stronger / more preferred TF binding; most listed sequences are background and not binding sites; conditions: protein concentration: 200 nM; construct: GST-full length
T1 sequence: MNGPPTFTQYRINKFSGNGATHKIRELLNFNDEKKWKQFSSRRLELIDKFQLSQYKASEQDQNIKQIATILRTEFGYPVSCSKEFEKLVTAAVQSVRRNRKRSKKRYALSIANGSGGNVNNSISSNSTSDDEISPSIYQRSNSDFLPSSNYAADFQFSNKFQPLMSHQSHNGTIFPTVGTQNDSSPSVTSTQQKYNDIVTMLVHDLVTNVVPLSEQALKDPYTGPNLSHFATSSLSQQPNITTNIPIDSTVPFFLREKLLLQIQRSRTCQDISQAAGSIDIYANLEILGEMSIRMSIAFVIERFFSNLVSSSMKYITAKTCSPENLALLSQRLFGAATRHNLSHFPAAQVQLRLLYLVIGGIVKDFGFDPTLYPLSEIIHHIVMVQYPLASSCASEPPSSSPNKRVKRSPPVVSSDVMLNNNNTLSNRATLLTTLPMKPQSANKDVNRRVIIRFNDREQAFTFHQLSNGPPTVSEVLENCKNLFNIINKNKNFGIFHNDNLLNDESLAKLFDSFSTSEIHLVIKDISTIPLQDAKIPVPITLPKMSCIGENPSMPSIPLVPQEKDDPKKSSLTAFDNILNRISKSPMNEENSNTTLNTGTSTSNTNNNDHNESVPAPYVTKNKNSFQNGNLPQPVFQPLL
Summary of the method: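 Masliner-normalised scans of fluorescent anti-GST signal were the basis for scoring. That signal came from GST-tagged yeast transcription factors applied at about 100-200 nM to double-stranded universal all-10-mer Agilent arrays on fresh or once-stripped slides. Each ungapped eight-base word, pooled with its reverse complement, received an E-score from the Universal PBM Analysis Suite.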

Sequence	PBM E-score
ATCGACCC	0.236
AAGGATGG	0.0659
GGTAATGA	0.023
ACGTTGTA	-0.133
GGGACACC	-0.0207
CAAGTGCC	-0.169
CTCGGGAC	-0.118
ACTGGGCG	-0.0166
ACGGTGCA	-0.162
TACTGTGA	0.13
GCTTGAAC	-0.0928
CATCAGAG	0.0134
CCGGCGGA	0.0876
ACCGATAG	0.131
CCGGACCG	0.147
TACAAAGA	0.0111
AGCAATCC	-0.172
AGGTCCAA	-0.195
CAGGATAA	0.11
AACGGATT	0.0207
CAATATTC	-0.0108
CCAGGAAC	-0.133
ATGCGGGG	-0.108
CTCATTTA	0.0469
AGACAGTC	0.119

Sequence	PBM E-score
AACTGAAG	-0.0593
TCAAGGCA	-0.102
GCAATGGC	-0.00625
CCTCGGAG	0.00615
AGCCAGAA	-0.00071
CGAGGATA	0.0422
ATCGTGGA	0.167
GAAGCGAC	0.0941
AAGCCTAT	-0.194
CTGCAGGC	-0.18
GCTAAACA	-0.0852
CTATGCCA	-0.0701
GGTTATAA	-0.0347
CAACCACG	0.202
AACCAAGG	0.00222
GCCTCAAA	-0.0409
AAAGGCGT	-0.19
CTAAGTGC	-0.0373
CCATAGGG	-0.0399
AGATGATC	0.0334
GTCTGCGA	-0.0703
AGTCGTCG	0.0519
TGCAAGCA	-0.0929
CGTCATTC	0.177
ACCAGCTA	-0.0791

Sequence	PBM E-score
ATTATCCC	0.0625
ATGCGCAA	0.147
CGTGAAAG	-0.216
ACTGCCCA	-0.0398
GTAGCTAA	-0.13
CAGGCAGA	-0.049
CTAGCGGC	-0.26
GCCGCGTA	-0.118
AGTAGGCC	-0.0399
AACTGGTC	-0.134
AGAGGGTG	-0.0291
CATGCTCA	0.17
AGCCTTCG	-0.103
CATGCCTC	-0.00371
CTGAGCAA	-0.0558
CCTTGCAC	-0.058
ATCCATGA	0.22
CAGGACCA	0.0761
CCGTGGCC	-0.195
CTGAAAAG	-0.258
GAACGTTC	-0.199
GAGCGTAC	-0.0561
ATTGCCAC	-0.00942
AGCGATTA	0.0481
AGCCGAAG	-0.0421

Sequence	PBM E-score
ATCCTAGG	-0.0544
CCTACAGA	-0.0624
ACCCCGGT	-0.0315
CTGGAGCC	0.00223
AATGGGGT	0.174
CGTAGTTC	-0.271
GGTTAAAC	-0.104
GCCGAGGC	0.147
ATTTGGGC	-0.0613
CGAGCACG	-0.0435
AGCGAGAT	0.153
ATCGCTTC	-0.056
CTTAAGGC	-0.172
GCAAACCA	0.218
GACGTCTC	-0.0562
GAGTGAAA	-0.142
TCCAACCA	0.114
ATCTAGGG	-0.0322
ATCGTGCC	-0.0704
CAGATCTC	0.115
AGGCTCCC	0.0362
ACCAAAAA	0.0817
AACCAAAC	-0.00189
AGCACACC	0.0914
ATTTAGGC	-0.0624

Sequence	PBM E-score
AAGCAAAG	-0.215
AGATGCCC	-0.0865
CTGTGTCA	0.161
GCAGTAGA	-0.164
ACTTTCTG	-0.0287
CGACGAAC	0.0153
CGCTTATA	0.089
CGTCTTTC	-0.243
CTCTCCAC	-0.179
ACGTTTCT	-0.177
GCGAATGA	0.229
AATCCAAC	0.0468
CACCTCTG	-0.0319
ACGACCCT	-0.139
AGGTGGTA	-0.0142
CCTATTAC	0.0699
CGCGATCA	0.184
AGACTCCC	-0.00382
TGCCTCAA	-0.0451
ACCGCGGC	0.0296
CAACCTGC	0.102
ACTACCGC	-0.104
AAGGCTCG	-0.297
CCCTTCGG	-0.0928
AGACTCCT	0.186

Sequence	PBM E-score
ATCTAGGC	-0.0831
TCACGAAA	0.0488
ACGCTTCG	-0.0398
CGCCGGCC	-0.152
CACTCCAC	0.0458
AAGCCAAT	-0.00411
CACAGGCG	0.0476
TAACAAAA	-0.0804
TCGTTGCA	-0.0623
GGCCACAC	0.0109
ACATTGTA	0.134
AATGCTTG	-0.127
TTGCTAAA	-0.222
GTCCGCCA	0.083
GCAGATGC	-0.137
GCTCCCAA	-0.103
AAACGTGA	-0.079
AGCAGTTG	0.0572
CATTTCAG	0.0121
GCCGCAGA	-0.0902
GCTCGCCA	-0.038
ACTGGTAA	0.0863
CAAGGGTA	-0.0422
CGATTGTA	0.141
ATTGCCTC	0.0199

Sequence	PBM E-score
AACACACG	0.00318
TGCACCAA	-0.181
TATGTTCA	0.0382
AGGCTGCC	-0.0191
CATACACC	0.101
AACGTTGA	-0.0968
AGAGTTGC	-0.153
GGAAACAC	0.0508
ACGTGGCT	0.0777
GCAAGGCA	-0.172
CTCGATTA	0.216
CGGGCGTC	0.0249
CGGAGAGC	-0.142
AGCTAAAT	-0.161
GAAAACTA	-0.0593
ATATGGCC	-0.14
CAAGCCTC	0.0384
TTCAGAAA	-0.29
AACAGGCC	-0.23
ATGTAATG	0.131
CCAAACCC	0.0097
CGGGGCGC	-0.196
ACGGCGGG	0.167
GGAGCAAA	-0.0129
CACGGAGA	-0.046

Sequence	PBM E-score
AACATGTT	-0.00334
CGGGCACA	0.0216
GCCGATAA	-0.285
CTCCAGGA	0.0194
CGACCGCC	0.108
TAAAATCA	0.0622
ACCTCAAT	-0.082
TAATTGGA	-0.0119
AAGTTTCG	-0.105
AAGTGATA	-0.14
AGTACTTG	-0.0003
CGAATATA	-0.0292
CGATCAGA	-0.0338
CTAACAAC	0.0793
ACGTATAG	0.0467
AACTTACC	-0.0137
GACTAAAA	0.0237
AGTCCCTA	-0.0461
GGGTCAAA	0.0941
ATGCGCAG	-0.0631
ATAGGATA	-0.0225
GTTTCCAA	-0.0854
GCAATTTA	0.0086
AGAGTGCC	-0.268
CGGCGGAG	0.0583

Sequence	PBM E-score
CTAAGGGC	-0.19
TATGATAA	0.117
AAACGCAT	-0.141
TCGGGAAA	0.0834
GTCTAATA	-0.214
ATAATCAA	0.0618
CCATCCGA	0.153
ATTTGACA	-0.00873
ATGCGGCA	-0.0033
GATCGCTA	-0.142
GCACTGGA	0.0423
AAAGTAGA	-0.198
CTCGACGA	-0.101
CCTGCTCG	-0.128
CTCAGGGA	-0.0411
GCCAATCC	0.0162
AGAAACCG	0.0625
GTCTGATA	-0.0684
GCAGGGGC	-0.189
